PubChem BioAssay AID360 (National Center for Advancing Translational Sciences (NCATS), 2006)
The campaign covered roughly 48,000 compounds. About 550 (1.1%) were called active. About 4% were inconclusive and are not listed. Cut-off read from the data, not from the text of the source: active = potency below about 15 µM; inconclusive = mostly about 16 µM to 33 µM; inactive = weaker than that. The list shows a part of the results.

molecular target: Lysosomal acid glucosylceramidase (Homo sapiens) (UniProt P04062); assay: Glucocerebrosidase; conditions: purified enzyme, resorufin glucoside fluorescence (screen aimed at inhibitors), 20 min;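 note: the screen sought inhibitors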
UniProt P04062, sequence (P04062 whole entry, looked up): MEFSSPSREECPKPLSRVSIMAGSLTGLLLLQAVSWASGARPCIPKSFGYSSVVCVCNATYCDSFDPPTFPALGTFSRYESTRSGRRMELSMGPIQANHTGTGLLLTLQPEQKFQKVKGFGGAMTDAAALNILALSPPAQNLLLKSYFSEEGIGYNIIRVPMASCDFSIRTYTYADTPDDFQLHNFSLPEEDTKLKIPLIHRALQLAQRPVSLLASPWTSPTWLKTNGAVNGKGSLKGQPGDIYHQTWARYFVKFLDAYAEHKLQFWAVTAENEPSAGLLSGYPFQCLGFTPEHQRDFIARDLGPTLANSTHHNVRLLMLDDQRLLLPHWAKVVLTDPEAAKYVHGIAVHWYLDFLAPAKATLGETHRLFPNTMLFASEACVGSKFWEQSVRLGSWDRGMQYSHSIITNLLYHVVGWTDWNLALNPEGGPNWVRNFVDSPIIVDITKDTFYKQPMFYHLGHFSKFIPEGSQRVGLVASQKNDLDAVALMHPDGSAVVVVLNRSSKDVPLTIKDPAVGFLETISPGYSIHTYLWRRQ
Method in brief: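 Normal human glucocerebrosidase (0.2 nM final) was assayed with resorufin β-D-glucopyranoside (30 uM final) in 50mM citric acid/KH2PO4, 10mM sodium taurocholate, 0.01% tween-20, pH 5.9. Compounds were titrated; fluorescence (Ex 548, Em 600) read after 20 min at RT.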
Potency is the fitted concentration of half-maximal effect.

Potency, inactive:
O=C(NCCCNC(=O)c1ccccn1)c1ccccn1 > 76.9 µM
O=C(c1cccc(Cl)c1)N(Cc1cccs1)C1CCS(=O)(=O)C1 (stereo not drawn) > 76.9 µM
CCCn1c(=O)c2ccccc2n2c(SCCOc3ccccc3F)nnc12 > 76.9 µM
COc1cc2nc(CC(C)C)n(NC(=O)c3ccccc3)c(=O)c2cc1OC > 76.9 µM
CC(=O)NC(O)C(=O)c1ccco1 (stereo not drawn) > 76.9 µM
Cn1c(N2CCCC2)nc2c1c(=O)n(Cc1cccc(F)c1)c(=O)n2C > 76.9 µM
COc1cc(NC(=O)Nc2cccc(Cl)c2)c(OC)cc1NC(=O)CN1CCCCC1 > 76.9 µM
O=C(Cn1ncc2c(=O)oc3ccccc3c21)N1CCCc2ccccc21 > 76.9 µM
CCN(CC)S(=O)(=O)c1cccc(-c2nnc(SCCOc3ccccc3)o2)c1 > 76.9 µM
O=C(CSc1nccn1-c1ccccc1)Nc1ccc2c(c1)OCO2 > 76.9 µM
COc1ccc(N2CCN(C(=O)CSc3nnc(-c4cc5ccccc5cc4O)n3C)CC2)cc1 > 76.9 µM
Cc1cc(NC(=O)NC(=O)c2ccc(F)cc2F)n[nH]1 > 76.9 µM
CCc1c(O)nc(SCC(=O)N2CCOCC2)n(-c2ccccc2)c1=O > 76.9 µM
CCN1CCN(CCCNC(=O)c2cn(CCOC)c(=O)c3c2c2ccccc2n3C)CC1 > 76.9 µM
COCc1nnc(NC(=O)CSc2ccccc2)s1 > 76.9 µM
CC(=O)Nc1ccc(C(=O)Nc2ccc3c(c2)OCO3)cc1
CS(=O)(=O)N(CC(=O)N1CCN(Cc2ccccc2)CC1)Cc1ccccc1 > 76.9 µM
COC(=O)c1cccc(NC(=O)CSc2nnc(COc3cccc(C)c3)n2C)c1 > 76.9 µM
Fc1ccc(-n2c(-c3ccco3)nc3nc4ccccc4nc32)cc1 > 76.9 µM
C=CCNC(=O)CCNS(=O)(=O)c1ccc(Br)cc1 > 76.9 µM
O=C(CSCc1cnn(-c2ccccc2)c1-n1cccc1)NCc1ccc2c(c1)OCO2 > 76.9 µM
Cn1c(NCc2cccs2)nc2ccccc21 > 76.9 µM
CCOC(=O)c1oc2ccccc2c1CSc1nnc(-c2ccco2)o1 > 76.9 µM
O=C(c1ccc(Cl)cc1Cl)C1(n2cncn2)Oc2ccccc2C1O (stereo not drawn) > 76.9 µM
Cn1cccc1Cc1nnc(SCC(=O)NCc2ccco2)n1-c1ccc(F)cc1 > 76.9 µM
Cc1ccc2c(c1)cc(CN(CCc1ccccc1)C(=O)N1CCOCC1)c1nnnn12 > 76.9 µM
O=C(COc1ccccc1)Nc1ccccc1C(=O)NCc1ccco1 > 76.9 µM
O=C(CSc1nnc(Cc2cccs2)n1-c1ccccc1)NCc1ccc2c(c1)OCO2 > 76.9 µM
O=C1CC(c2ccccc2)CC(O)=C1C=NCCN1CCN(C(=O)Nc2ccccc2)CC1 (stereo not drawn) > 76.9 µM
CC1=NC(C)Cc2ccccc21 (stereo not drawn) > 76.9 µM
CCc1nnc(NC(=O)CCN2C(=O)c3ccccc3C2=O)s1 > 76.9 µM
CCCCn1nnnc1SCC(=O)Nc1ccc(F)cc1 > 76.9 µM
CCOC(=O)C1CCN(c2ncnc3c2oc2ccc(Br)cc23)CC1
COC(=O)CNC(=O)Cn1ccc2ccccc2c1=O > 76.9 µM
Cc1ccc(Cn2cnc3c(nnn3Cc3ccc(Cl)cc3)c2=O)cc1 > 76.9 µM
c1ccc(N2CCN(c3nc4ccccc4n4nnnc34)CC2)cc1 > 76.9 µM
O/N=C1/C2C3CC4C5C3C1C5C1(OCCO1)C42 (stereo not drawn) > 76.9 µM
C=CC(O)(C#CCN(CC)CC)c1ccccc1 (stereo not drawn) > 76.9 µM
Cc1ccc(CNC(=O)C2CCC(=O)N2C2CCCCC2)cc1 (stereo not drawn) > 76.9 µM
CC1CCc2c(nc3ncnn3c2N2CCN(c3ccccc3)CC2)C1 (stereo not drawn) > 76.9 µM
O/N=C1/CCc2nonc2/C1=N/O > 76.9 µM
CCOc1ccc(NCC(=O)Nc2ccc(C)cc2C)cc1 > 76.9 µM
Cc1cc2nnc(SCc3ccccc3)n2c(N)n1 > 76.9 µM
Cc1[nH]c2ccccc2c1C(=O)CN1CCSCC1 > 76.9 µM
Cc1ccc(-n2ncc(C(=O)NCc3ccc4c(c3)OCO4)c2NC(=O)c2ccco2)cc1C > 76.9 µM
O=C(O)CCCCCNC(=O)c1ccncc1 > 76.9 µM
CC(=O)Nc1ccc(C(=O)OC2CCOC2=O)cc1 (stereo not drawn) > 76.9 µM
O=C(CCC(=O)N1CCN(S(=O)(=O)c2ccccc2)CC1)c1cccs1 > 76.9 µM
O=C1CC(c2cccc(Cl)c2)Cc2nc(N3CCOCC3)ncc21 (stereo not drawn)
Cc1cc(C)cc(NC(=O)C2CCCN(c3nccc(C)n3)C2)c1 (stereo not drawn) > 76.9 µM
O=C1NC2CCCCC2NC1CC(=O)N1CCN(c2ccccc2)CC1 (stereo not drawn) > 76.9 µM
CCOC(=O)N1CCN(c2cc(=O)n(Cc3ccc(F)cc3)c(=O)[nH]2)CC1 > 76.9 µM
CC(=O)Nc1sc2c(c1C(=O)N1CCOCC1)CCCCC2 > 76.9 µM
Nn1c(-c2cccs2)nc2sc3c(c2c1=O)CCCC3 > 76.9 µM
COc1ccc(C(=O)NCC(=O)Nc2ccccc2)cc1OC > 76.9 µM
N#CC1=C(SCC(=O)NCc2ccccc2)NC(=O)CC1c1ccco1 (stereo not drawn) > 76.9 µM
O=c1[nH]c(=O)n(CCOc2ccc(Cl)cc2)cc1Br > 76.9 µM
Cc1cccc(NC(=O)c2cc(NC(=O)c3ccco3)ccc2Cl)n1 > 76.9 µM
COC(=O)c1cccc(NC(=O)Cn2cnc3c2c(=O)n(C)c(=O)n3C)c1 > 76.9 µM
CC(C)OC(=O)CSc1nnc(-c2ccccn2)n1C > 76.9 µM
N#CC1=C(N)Oc2n[nH]c(-c3cccs3)c2C1c1ccoc1 (stereo not drawn) > 76.9 µM
COc1ccc(OC)c(CNC(=O)C2CCCN(c3nc4ccccc4o3)C2)c1 (stereo not drawn) > 76.9 µM
O=C(NCc1ccc(N2CCCC2=O)cc1)c1cnccn1 > 76.9 µM
COc1ccc(-c2noc(CN3CCOCC3)n2)cc1OC > 76.9 µM
Cc1ccc(-c2nc3cc(NC(=O)C(C)C)ccc3o2)cc1C > 76.9 µM
CC(C)NC(=O)C1CCCN(S(=O)(=O)c2cccs2)C1 (stereo not drawn) > 76.9 µM
COC(=O)COC(=O)c1ccc(-n2nnnc2SC)cc1 > 76.9 µM
COc1cccc(OC)c1C(=O)N1CCN(Cc2ccccc2C(F)(F)F)CC1 > 76.9 µM
CCC(C)c1ccccc1NC(=O)c1cccnc1 (stereo not drawn) > 76.9 µM
COc1ccc(CN2C(=O)CN=C2Nc2cc(C)ccc2C)cc1 > 76.9 µM
CCc1ccccc1NC(=O)N1C2CCCC1CC(NC(=O)C(C)(C)C)C2 (stereo not drawn) > 76.9 µM
O=C(CN(C(=O)CCC(=O)Nc1nccs1)c1ccc2c(c1)OCO2)NCC1CCCO1 (stereo not drawn) > 76.9 µM
CCN(CC)C(=O)c1cn(CC)c(=O)c2cc(OC)c(OC)cc12 > 76.9 µM
COc1cc2c(cc1OC)C(c1cccc(OC)c1OC)CC(=O)N2 (stereo not drawn) > 76.9 µM
Cc1ccc(N2CC(C(=O)Nc3ccncc3)CC2=O)cc1 (stereo not drawn) > 76.9 µM
COc1cc(C2C3=C(CC(C)(C)CC3=O)N(C)C(=O)N2C)cc(OC)c1OC (stereo not drawn) > 76.9 µM
O=C(Nc1ccccc1C(F)(F)F)c1cc(-c2ccccc2O)on1 > 76.9 µM
CCOc1ccccc1C1C(C(=O)Nc2ccccc2OC)=C(C)Nc2nnnn21 (stereo not drawn) > 76.9 µM
O=C(O)Cn1c(CC(=O)N2CCCC2)nc2ccccc21 > 76.9 µM
CC(C)Sc1nc(SCC(=O)NCc2ccco2)c2c3c(sc2n1)COC(C)(C)C3 > 76.9 µM
CS(=O)(=O)c1ccc2nc(NC(=O)CN3CCCCCC3)sc2c1 > 76.9 µM
CC1=CC(C)(C)N(C(=O)c2ccc(F)cc2)c2cc3c(cc21)OCO3 > 76.9 µM
CCN1CCCC1CNC(=O)CSc1cc(=O)n(CC)c2ccccc12 (stereo not drawn) > 76.9 µM
COc1cc(NC(=O)N[C@H](C(=O)O)C(C)C)cc(OC)c1 > 76.9 µM
CCCCOc1ccc(-c2nnc(-c3ccco3)o2)cc1 > 76.9 µM
CN(C)CCCNC(=O)c1ccc(-c2ccccc2)cc1 > 76.9 µM
COc1ccccc1CNC(=O)CSc1nc(-c2ccccc2)cn1N > 76.9 µM
COc1ccc(-c2cc(C(=O)N3CCCCC3)no2)cc1OC > 76.9 µM
COc1ccc(CC(=O)OCC(=O)NC(=O)NC2CCCCC2)cc1 > 76.9 µM
COc1ccc(N2C(=O)CC(N3CCC(C(N)=O)CC3)C2=O)cc1 (stereo not drawn) > 76.9 µM
O=C(c1ccco1)N1CCN(C(=O)C2c3ccccc3Oc3ccccc32)CC1 > 76.9 µM
O=C(CCN1CCN(CCC(=O)c2ccccc2)CC1)c1ccccc1 > 76.9 µM
O=C(CSc1nnc(-c2cccs2)o1)N1CCCc2ccccc21 > 76.9 µM
